Results: the RNAGym collection of RNA variant scans (doi:10.1073/pnas.2313332121)
This sample is rich in variants without activity.

B1: TPR 5TU (parent)
chain: GGAUCUUCUCGAUCUAACAAAAAAGACAAAUCUGCCACAAAGCUUGAGAGCAUCUUCGGAUGCAGAGGCGGCAGCCUUCGGUGGCGCGAUAGCGCCAACGUUCUCAACUAUGACACGCAAAACGCGUGCUCCGUUGAAUGGAGUUUAUCAUG

Variants of: B1
Assay: polymerase ribozyme fitness, log enrichment relative to wild type (log ratio); higher = more active; in vitro selection for triplet polymerase activity
Outline: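 Libraries of mutants in each subunit of a heterodimeric triplet polymerase ribozyme were generated by PCR and transcribed. In triplicate, each went through one in vitro selection round: annealing with biotinylated primer, partner subunit and triplets; frozen incubation at −7 °C; gel excision of extended constructs; streptavidin-bead capture; RT-PCR. Fitness, taken from Illumina sequencing of input and output libraries, is the logarithm of a genotype's enrichment over wild-type enrichment, averaged across replicates with inverse-variance weights. The logarithm is base 2, and genotypes needed ≥10 input reads and ≥1 read per output to be kept.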

Variant	polymerase ribozyme fitness (log ratio)
A24C C27A U55G	≤ -4.2
A24C U33A C35G U53A G92C	≤ -4.2
A24U A52G C79G G94A A107G	≤ -4.2
A24C G46A C116G	-4.14
A24U C27U C51A G92A A113U	≤ -4.2
A24G U53A C96G A122G A142C	≤ -4.2
A24G C85U C114U G124A U139G U148C	≤ -4.2
A24G C32A C38A U45A C57U A106U C118U	≤ -4.2
A24C A52U G80A A122C	≤ -4.2
A24G C76U A89U G92A G141C	≤ -4.2
A24U A28G C38G A52G C85U C114U	≤ -4.2
A24C A28U U33A U44A C54A U55A G86U G88U	≤ -4.2
A24U C36A A49C G50A G86U C93A	≤ -4.2
A24U A41G A107G	≤ -4.2
G25A U33A G83C A91U G94A A121U C131U	≤ -4.2
G25A U55A U135A	-3.79
A24U U55A C76G C79G A142C	≤ -4.2
A24C U56G G59C A91U U144C G152U	≤ -4.2
A24G G83U	-3.03
A24U G74C	-4.19
A24U G58U G70C G141U A147C	≤ -4.2
A24G A29G U31G U55G U56A G92A C103U U111A	≤ -4.2
A24G U45A G59C C76G G84C A91G C95A C125A	≤ -4.2
A24C A49U C96A	≤ -4.2

Variant	polymerase ribozyme fitness (log ratio)
G25A C43A G84A C96A U111C A119U G133A U146C	≤ -4.2
G25A C27U U45G A49C A91U U101G C118A	≤ -4.2
A24C A28U C36A G50U G143A	≤ -4.2
A24G C43G G100U U144G	≤ -4.2
A24U U55A G58A A60G A64G C93G U101G C123A	≤ -4.2
A24U U31G A52C G65A G84C C87U A119G	≤ -4.2
A24U C99G U135G G141U U148A	≤ -4.2
A24C G84U	≤ -4.2
A24U U55A C85A A115U G133U	≤ -4.2
A24G A26G A60C C85U G88U C93G C105A U145A U151C	≤ -4.2
A24C C27A C87G C108G C114U U148C	≤ -4.2
A24C C75U A113U G124U U144C	≤ -4.2
A24G U44A U55G C85A C95U G100A	≤ -4.2
A24U A30G A64G C87G A122U C125U C149U	≤ -4.2
A24C A47G C79U G94C C125U	≤ -4.2
A24U U77A G92A C125G	≤ -4.2
A24U A91U	≤ -4.2
G25A C57A C85A G152U	≤ -4.2
A24C C27G A30G U31A G50C C57U A64G G68A C76G C96G	≤ -4.2
A24G C87G C114A G140U G141U	≤ -4.2
A24C C75A A106U C132G U139C A142U	≤ -4.2
A24U U56A C87G A106C U135G A142U	≤ -4.2
A24U A37G C54A C85G C99U A106U G133C U144G	≤ -4.2
A24G G84U	≤ -4.2

Variant	polymerase ribozyme fitness (log ratio)
A24C C57U C75U C96A G143C	≤ -4.2
A24U G92U	0.213
A24C C32U A40U U44A U77A G94C A115C G124U G136C U151C	≤ -4.2
A24U C99U	-1.46
A24U A28G A29U C93G C114U	≤ -4.2
A24C A30U A138U U144G	≤ -4.2
A24U U61A C76A A98G C108G	≤ -4.2
G25A A41G U55A C96U C108U	≤ -4.2
A24G C27A C35U A40U C93U G128C G141A	≤ -4.2
A24U C38G C57G G83C A91U C105A C149A	≤ -4.2
A24G C38U A97C C131G	≤ -4.2
A24C U55A U56A C79A U148A	≤ -4.2
G25A A28U A41U A66U G83U U111G C118U	≤ -4.2
A24G A64C G67A G84U U109G A150U	≤ -4.2
A24G G34A A73G A107U U134G	≤ -4.2
A24C C35U U53G	≤ -4.2
A24C A37C C38U U56A C57U C63A C69U C96A U127G U144C	≤ -4.2
A24U C27A G83A A89U C114U G143C	≤ -4.2
A24U A64U U104A A122U	≤ -4.2
A24C C35U U45A G83U G128U G141A	≤ -4.2
A24U C35U G42C C93U G136C A142G	-4.03
A24C A91C C95U	≤ -4.2
A24U A29C A73G G86U A89C G140U A150G	≤ -4.2
A24G C38A G58A G92C A120C U148G	≤ -4.2

Variant	polymerase ribozyme fitness (log ratio)
A24U C131U	2.4
A24U C27U A29U A52C U55A U111C A120G	≤ -4.2
A24U G46C G83U G84C C95G A97G A122U G140C	≤ -4.2
A24C A28U A41C U78G A122G U127A	≤ -4.2
A24C G34A C96G G117C U135G U139A U145A	≤ -4.2
A24C G83C A106C G112A	≤ -4.2
A24C A91G	≤ -4.2
A24C G68A C95A G100A	≤ -4.2
A24U A40C U55A A60G C75G C96G U104G	≤ -4.2
A24C C43U C93G G141U	≤ -4.2
A24C A47C U53A A66U G80A C93U	≤ -4.2
A24U C54G G59C G71U U77C C129G U144G	≤ -4.2
A24G G92A A121U A147G	≤ -4.2
A24C C51U G86A	≤ -4.2
G25A A30G A41U G50A C87U	≤ -4.2
A24U A52C	-0.457
A24G G46C A47U G59C A91U C123G G140C U146A	≤ -4.2
A24C A47G A49U G83U C129U	≤ -4.2
A24G G25C A39C G58C	≤ -4.2
A24G A41G U55A C63U C69A U82A G84A	≤ -4.2
A24U C51A A64G U102C C116A	≤ -4.2
A24C U45A G84U C85A A107U U144C	≤ -4.2
A24C U53A C105G	≤ -4.2
A24U A26U A30C U61A	≤ -4.2

Variant	polymerase ribozyme fitness (log ratio)
A24U A37C A47U A73U G80U C99U U139G	≤ -4.2
A24C U33A G62C U82G C123U A138G	≤ -4.2
G25A A41G G68C G81U C93A G126U U151A	≤ -4.2
A24G G84U U148A G152C	≤ -4.2
A24G C57G C75U G92U C118A	≤ -4.2
A24U C38A G50U U55A U61G G68C G84U G141A U151G	≤ -4.2
A24C C35A C93A	≤ -4.2
G25A G94C A113C A142C	≤ -4.2
A24U A26U G48C G83A A115U C116U	≤ -4.2
A24U C72U G84U C118U A142G	-3.98
A24U U45G G68C U77A C87U C96A G124U	≤ -4.2
A24U C51A U56A G71U G88C U102C	≤ -4.2
A24G C69U C87G U134A	≤ -4.2
A24U U44A G71A U90C G117U C118U U134C G136A	≤ -4.2
A24U C87A G88A	≤ -4.2
A24C C87A A113G C118G G133C A137G G152A	≤ -4.2
A24U G50C C57A A73G G128U	≤ -4.2
A24C C38U G42C	≤ -4.2
A24C A39C G68C	≤ -4.2
A24U A26U C32G U77G U82A C85A C118U A120U	≤ -4.2
A24G A37U A115G U130C U135A A150U	≤ -4.2
A24U U31G G92U A107C U144A	≤ -4.2
A24U A97G U151C	≤ -4.2
A24G A28C U82A	≤ -4.2

Variant	polymerase ribozyme fitness (log ratio)
A24U A60U G84U	-2.22
A24U C51G U55A G59C	-2.27
A24U A40C U44A C57A A97G C105A U111C A120U C129U C132U	≤ -4.2
A24U A41U G62C G70C C85G G152A	≤ -4.2
A24U G25C A49C G81C A91G A98U	≤ -4.2
G25A C54A G84U C114U A115G A121C U145G A150U	≤ -4.2
G25A C35U G84A C87A A91U C118U A142G	≤ -4.2
A24G C36U G58C G68C U146C A147C	≤ -4.2
A24C U53A A73G C85U G141A	≤ -4.2
G25A C87A G88C G92A C123G	≤ -4.2
A24U G46C A73G C87U G92C	-3.37
A24U C75A A106C	≤ -4.2
A24U C36U G65C C85U C87G C96G	≤ -4.2
A24U A49C C85G G86U	≤ -4.2
A24G C99U	-3.56
A24G A26U G58C G84U A113U	≤ -4.2
A24C C76U A91U	≤ -4.2
A24G A37C A40C G50C U56A C79U U135G	≤ -4.2
A24U G42C G84A C93U G94C C99A A122G	≤ -4.2
A24C G50A A52C G74U C85U G117U	≤ -4.2
A24U G59U C87U G128A G140U U151C	≤ -4.2
G25A A47G G59A G83A A91U A107U A122U U127C	≤ -4.2
G25A A47U A52C U77G G84A C93G U127C	≤ -4.2
A24U A26U U44C	≤ -4.2

Variant	polymerase ribozyme fitness (log ratio)
G25A C35U C38U G92A C93G	≤ -4.2
A24C C63U G71A C105G G143C U151G	≤ -4.2
A24U C85G C96U C114U G141C	≤ -4.2
A24C A41C U56A G86A G88C U90G C125U	≤ -4.2
A24C A52C C76U U77A U78C C85G	≤ -4.2
A24U U45G G86A	-2.58
A24C C36A C54A G81U A89C A91C C118U C125A	≤ -4.2
A24U A52C C87A	≤ -4.2
A24G A49G C105U G117U	≤ -4.2
A24C G42U A47C C79A U90A A97C U148A	≤ -4.2
A24G G42A G67C G80U C93G C114A	≤ -4.2
G25A A26G G50C C57U U61A C95U U130G U135A	≤ -4.2
A24G A39G G92A U104C G112A C114U A115U A122U G124C	≤ -4.2
A24C A30U G68U C76A C87A C116G	≤ -4.2
G25A C32G A49G G81C C87G	≤ -4.2
A24C G71A A107C G126A	≤ -4.2
A24C C54U G84A C132G	≤ -4.2
A24U G84A G94U C96A A121U G126U U135A	-4.1
A24U C38G G100C G140U	≤ -4.2
A24C C131G C132A U139C	≤ -4.2
A24C U53A G81C C95U G141A	≤ -4.2
G25A U56A A73U C85A C131U G143A	≤ -4.2
A24G A26U G141C	≤ -4.2
